We go through 82 compounds from PubChem BioAssay AID1346428 (National Center for Advancing Translational Sciences (NCATS), 2018).

The campaign covered roughly 48,000 compounds. About 1,200 (2.5%) were called active. Not shown: some 2% with an inconclusive outcome.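 Rule for the calls: active = activation of at least 60% and not above a set upper limit (about 1 call in 100 departs from these limits); inconclusive = activation of 40% to 60%, or above that upper limit; inactive = activation under 40%.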 The list shows a part of the results.

Chain of UniProt O75388 (O75388 whole entry, looked up, the tested form may be a part): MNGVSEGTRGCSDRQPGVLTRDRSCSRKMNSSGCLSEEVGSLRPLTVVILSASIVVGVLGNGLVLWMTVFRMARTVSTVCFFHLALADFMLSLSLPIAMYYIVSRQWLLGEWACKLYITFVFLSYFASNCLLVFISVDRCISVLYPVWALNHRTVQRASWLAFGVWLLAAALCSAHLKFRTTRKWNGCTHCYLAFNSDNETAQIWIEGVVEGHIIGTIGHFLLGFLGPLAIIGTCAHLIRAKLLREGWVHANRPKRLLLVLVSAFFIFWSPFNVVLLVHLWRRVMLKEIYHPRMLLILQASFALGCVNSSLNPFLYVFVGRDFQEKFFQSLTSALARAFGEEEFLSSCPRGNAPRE

The target of this assay is Probable G-protein coupled receptor 32 (Homo sapiens) (UniProt O75388). Nature of the assay: qHTS for Agonists of Human Resolvin D1 Receptor DRV1. The settings on record: CHO-K1 GPR32 beta-arrestin PathHunter luminescence, 90 min; at 76.9 µM; stronger effect = higher value; zero percent set by DMSO-only wells. In outline:
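PathHunter enzyme-fragment complementation, CHO-K1 GPR32 stable line; 2,500 cells/well, overnight attach; cpd 90 min 37 °C 5% CO2; detection reagent 1 h RT; chemiluminescence. DMSO = EC0.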
Take `CC(=O)c1cccc(NC(=O)c2nc(-c3ccccc3)n(-c3ccccc3C)n2)c1`: the activation is inactive: -10.5%. As for `COc1ccc(C)cc1Nc1nc(N)c2cc(OC)c(OC)cc2n1`, the figure is inactive: 13.2%.

For the compound `CCN1CCN(Cc2c(O)ccc3cc(-c4ccc(OC)cc4)c(=O)oc23)CC1`, the activation was inactive: 0.636%.

In the case of `Cc1ccc(/C=C/c2onc(C)c2S(=O)(=O)N2CCC(C(=O)N(CCC(C)C)Cc3ccco3)CC2)cc1`, the activation is inactive: -12.8%. As for `COc1ccc(N2CCN(CCCNC(=O)c3ccc4nc(N5CCCCC5)sc4c3)CC2)cc1`, the figure is inactive: 2.24%; as for `COc1ccccc1NC(=O)Cn1c(=O)n(-c2ccc(C)cc2)c(=O)c2c1cnn2C`, inactive: 7.48%; as for `CCOc1ccc(NC(=O)c2oc3ccccc3c2NC(=O)c2cc3ccccc3o2)cc1`, inactive: -3.94%. `Cc1ccc(CNC(=O)c2ccc(CS(=O)(=O)c3ccccc3C)o2)cc1`: the activation is inactive: 40.5%. As for `Cc1ccc(N2C(=O)CSC23C(=O)N(CC(=O)Nc2ccccc2F)c2ccccc23)cc1C` (configuration not stated), the figure is inactive: -9.81%; as for `CN(C)c1ccc(CNC(=O)c2ccc3nc(CCc4ccccc4)oc3c2)cc1`, inactive: -16%.

With `CCOC(=O)CSc1nc2cc3c(cc2c(=O)n1CCCCCC(=O)NCc1ccc(OC)cc1)OCO3`, the activation is inactive: -20.9%. Under `COc1ccc(-n2nc(C(=O)Nc3cccc(Cl)c3)c3c4ccccc4n(C)c3c2=O)cc1Cl` stands inactive: 8.35%.

Take `CC(C)(C)c1ccc(-c2nnc(-c3ccccc3NC(=O)c3ccc(F)cc3F)o2)cc1`: the activation is inactive: 1.41%.

On to `O=C(Nc1ccc(Br)cc1)c1cccc(S(=O)(=O)N2CCc3ccccc32)c1`, for which the activation is inactive: 9.81%. As for `CCCCCCC1CCC(C(=O)NC(C(=O)O)C(C)C)CC1` (configuration not stated), the figure is inactive: 47.5%.

Turning to `O=C(CSc1oc(-c2ccco2)nc1S(=O)(=O)c1ccc(Cl)cc1)Nc1ccc(F)cc1`, the activation is inactive: -18.4%. With `CC(C)c1ccc(NC(=O)CSC2=Nc3ccccc3C3=NC(CC(=O)NC4CCCCC4)C(=O)N23)cc1` (configuration not stated), the activation is inactive: -18.7%. Under `COc1ccc2c(Sc3ccc(Cl)cc3)c(C(=O)N3CCCCC3)[nH]c2c1` stands inactive: 6.92%; under `COc1ccc(-c2nc3ccccc3n3c(-c4ccccc4)c4c(=O)n(C)c(=O)n(C)c4c23)cc1`, inactive: -10%. Under `CN[C@H](CC(=O)O)C(=O)O` stands inactive: -2.27%; under `CCn1cc2nc(SCc3cccc(C(F)(F)F)c3)n(Cc3ccc(C)cc3)c(=O)c2n1`, inactive: 8.23%; under `O=C(NCc1ccc(Cl)cc1Cl)c1cccc(N2CCCS2(=O)=O)c1`, active: 61.7%. Under `COc1ccc(-c2cc(C(=O)Nc3cnn(Cc4ccc(F)cc4)c3)no2)cc1OC` stands inactive: 29.4%; under `Cc1cc(F)ccc1NC(=O)c1c(C)oc2c1C1=NCCN1C=N2`, inactive: -11.6%.

On to `CCc1ccccc1NC(=O)CSc1nc2c(c(=O)[nH]1)CN(Cc1ccccc1OC)CC2`, for which the activation is inactive: -1.91%.

As for `Cc1cc(C)c2c(N)c(C(=O)Nc3ccccc3C(F)(F)F)sc2n1`, the activation is active: 89.4%. Turning to `COc1cc2c(cc1NC(=O)C(C)Oc1ccccc1)oc1ccccc12` (configuration not stated), the activation is inactive: -9.54%. As for `COc1ccccc1-n1c(=O)n(C)c2c(C(N)=O)nc(-c3cc(OC)c(OC)c(OC)c3)nc21`, the figure is inactive: -2.79%; as for `Cc1ccc(C)c(Cn2c(=O)n(CCCC(=O)NCc3ccc4c(c3)OCO4)c(=O)c3sccc32)c1`, inactive: -22%. As for `COc1ccc(OC)c(NC(=O)COCc2cc(-c3ccc(F)cc3)on2)c1`, the figure is inactive: -15.7%; as for `CCC1CN(C(=O)Nc2cc(Cl)ccc2C(=O)OC)c2ccccc2S1` (configuration not stated), inactive: -17.7%.

`Cc1ccc(N2C(=O)N(Cc3cccc(Cl)c3)c3ccccc3S2(=O)=O)cc1`: the activation was inactive: -5.99%. As for `CN(C(=O)c1nn(C)c2c1CS(=O)(=O)c1ccccc1-2)c1cccc(Cl)c1`, the figure is inactive: -12.6%. As for `CCCSc1ncc(Cl)c(C(=O)N2CCN(c3ccc(OC)cc3)CC2)n1`, the figure is inactive: -21.3%; as for `CC(C)Oc1ccc(C(=O)N2CCCCC2CCN2CCCCC2)cc1` (configuration not stated), inactive: -7.78%. As for `CCOC(=O)c1ccc(NC(=O)c2c(NCc3cccc(OC)c3OC)sc3c2CCC3)cc1`, the figure is inactive: -11.6%; as for `CCC(C)c1ccc(OCC(=O)Nc2ccc(-c3nc4ncccc4o3)cc2)cc1` (configuration not stated), inactive: -5.06%. With `CCOC(=O)c1sc(N2C(=O)c3oc4ccc(F)cc4c(=O)c3C2c2ccc(O)cc2)nc1C` (configuration not stated), the activation was inactive: 4.86%.

Take `CCCOc1ccc(CNC(=O)c2cc3ccccn3n2)cc1`: the activation was inactive: 14.9%. On to `CCOc1ccccc1NC(=O)CCNS(=O)(=O)c1ccc2c(c1)CCN2C(=O)C1CC1`, for which the activation was inactive: 0.802%. As for `CCCCS(=O)CC(O)CSc1nc(-c2ccc(OC)cc2)cc(-c2ccccc2)c1C#N` (configuration not stated), the figure is inactive: -27.2%; as for `Cc1ccc(/C=C/c2onc(C)c2S(=O)(=O)N2CCC(C(=O)NCc3ccc(N(C)C)cc3)CC2)cc1`, inactive: -12.9%. Under `COc1ccc(NC(=O)CN(c2ccc(C)cc2)S(=O)(=O)c2cccs2)cc1OC` stands inactive: 0.268%; under `CCCCN(C)C(=O)Cn1ncc2c([nH]c3ccc(C)cc32)c1=O`, inactive: -4.44%.

With `Cn1ncc2c(N3CCN(c4ccccc4Cl)CC3)ncnc21`, the activation is inactive: 32.9%. As for `Cc1ccc(OCCCC(=O)Nc2sc3c(c2C(N)=O)CCCC3)cc1`, the figure is inactive: 44.5%; as for `CCC(Sc1nnc(-c2ccc(OC)cc2)c(-c2ccc(OC)cc2)n1)C(=O)Nc1cccc(OC)c1` (configuration not stated), inactive: -18.7%; as for `Fc1ccccc1N1CCN(c2c3c(nc4nncn24)CCC3)CC1`, inactive: -3.24%.

With `Cc1cc(C)cc(NC(=O)c2cccc(N3CCCS3(=O)=O)c2)c1`, the activation was inactive: 27.3%.

With `COc1ccccc1NC(=O)c1sc2nc(-c3cc4ccccc4oc3=O)[nH]c(=O)c2c1C`, the activation is inactive: -4.57%. As for `O=C(CSc1nnc(-c2ccccc2F)o1)N1CCc2ccccc21`, the figure is inactive: -0.154%. As for `COc1ccc(C(=O)N/C(=C\c2cn(S(=O)(=O)N(C)C)c3ccccc23)C(=O)NCCCn2ccnc2)cc1`, the figure is inactive: 2.1%. Under `Cc1cccc(C(=O)Nc2nnc(SCc3cc(=O)n4cccc(C)c4n3)s2)c1` stands inactive: -4%; under `O=C(Cc1ccc(Cl)cc1)NCC(c1cccs1)S(=O)(=O)c1ccc(Cl)cc1` (configuration not stated), inactive: -3.19%; under `C#Cc1cccc(Nc2ncnc3cc(OCCOC)c(OCCOC)cc23)c1`, inactive: -68.2%. For `Cc1cccc(NC(=O)c2c(NC(=O)c3ccco3)sc3c2CCC(C(C)(C)C)C3)c1` (configuration not stated), the activation was inactive: 15.6%. As for `Cc1ccccc1C(=O)Nc1ccc(C(=O)OCc2cc(=O)n3nc(C4CC4)sc3n2)cc1`, the figure is inactive: -8.38%; as for `CC(CNC(=O)CN1C(=O)COc2ccc(S(=O)(=O)N3CCCCC3)cc21)c1ccccc1` (configuration not stated), inactive: -16.2%; as for `COc1ccc2c(c1)c1c(c(=O)n(Cc3ccccc3)c(=O)n1Cc1ccc(C)cc1)n2C`, inactive: -6.15%. As for `Cc1onc(-c2ccccc2Cl)c1C(=O)N[C@@H]1C(=O)N2[C@@H]1SC(C)(C)[C@@H]2C(=O)O`, the figure is inactive: -2.7%. Under `Cc1ccc(-n2ncc(C(=O)NCCCN3CCc4ccccc4C3)c2C2CCN(C(=O)OC(C)(C)C)CC2)cc1C` stands inactive: -28.2%. As to `CC1CN(C(=O)Nc2ccc(C(=O)NCCc3ccccc3Cl)cc2)c2ccccc2S1` (configuration not stated), the activation was inactive: -26.7%. As for `CCOC(=O)C1CCN(C(=O)c2cc3ccc4ccc(C)[nH]c4c3n2)CC1`, the figure is inactive: -10.3%. Under `CCC(C)NC(=O)c1[nH]c2cc(OC)ccc2c1Sc1ccc(C)cc1` (configuration not stated) stands inactive: -19.1%; under `CCOc1ccc(NC(=O)CC2C(=O)N(c3cccc(C)c3)C(=O)N2Cc2ccco2)cc1` (configuration not stated), inactive: -17.1%. Under `COc1ccc(-c2cc(C(F)(F)F)n3nc(C(=O)Nc4sc5c(c4C#N)CCC(C)C5)cc3n2)cc1OC` (configuration not stated) stands inactive: -4.62%.

For the compound `O=C(CSCc1cc(=O)c2ccccc2[nH]1)Nc1cccc(C(F)(F)F)c1`, the activation was inactive: -6.08%. As for `CC(=O)c1ccc(N2CCN(S(=O)(=O)c3ccc4[nH]c5c(c4c3)CCCCC5)CC2)cc1`, the figure is inactive: -3.09%; as for `CC(=O)N1c2ccccc2C(=O)C1N1CCN(c2cc(Cl)ccc2C)CC1` (configuration not stated), inactive: -56.5%; as for `CCOC(=O)c1cccc(NC(=O)c2cnn(-c3ccccc3)c2-n2cccc2)c1`, inactive: -20.6%. Consider `CCC1CN(C(=O)Nc2ccccc2C(F)(F)F)c2ccccc2S1` (configuration not stated), for which the activation is inactive: -30.2%. As for `Cc1ccc(CNC(=O)c2cc(S(=O)(=O)N3CCCCC3)cn2C)cc1`, the figure is inactive: 0.0735%; as for `Cc1ccc2nc(CN3CCN(C(=O)Nc4cccc(C)c4C)CC3)oc2c1`, inactive: 13.5%; as for `CCC1CN(C(=O)N2CCC(C(=O)N(C)Cc3ccccc3)CC2)c2ccccc2O1` (configuration not stated), inactive: -8.5%. Under `Cc1nc2c(-c3ccccc3)c(C)[nH]n2c(=O)c1Cc1ccc(C(C)C)cc1` stands inactive: -19%; under `CCS(=O)(=O)c1ncc(N(Cc2cccc(F)c2)Cc2ccco2)c(C(=O)Nc2ccccc2Cl)n1`, inactive: 2%.

`COc1ccc(NC(=O)CN2C(=O)CC(c3ccco3)Sc3ccccc32)cc1OC` (configuration not stated): the activation is inactive: -0.875%. Take `COC(=O)c1scc(-c2ccc(C)cc2)c1S(=O)(=O)Nc1c(C)cc(C)cc1C`: the activation was inactive: -0.685%. Consider `CCOc1ccccc1N(C)C(=O)NCc1noc2ccccc12`, for which the activation is inactive: -13.6%.

On to `Cc1ccc(-n2nc(C)c3nc(CCC(=O)Nc4ccc(F)cc4)c(=O)n(C)c32)cc1`, for which the activation was inactive: -9.48%. As for `CN(CC[C@@H](Oc1ccc(C(F)(F)F)cc1)c1ccccc1)CC(=O)O`, the figure is inactive: -1.62%; as for `CCn1cc(C(=O)NC(C)c2ccccc2)c(=O)c2cc(S(=O)(=O)N3CCc4ccccc4C3)ccc21` (configuration not stated), inactive: -14%.
